Results published in PubChem BioAssay AID1240 (Sanford-Burnham Center for Chemical Genomics, 2008).
The campaign covered roughly 50,000 compounds. About 800 (1.6%) showed an effect of 50% or more. The list shows a part of the results.

biological target: Bcl-2-like protein 10 (Homo sapiens) (UniProt Q9HD36); assay: TR3 peptide-Bcl-B binding displacers, biochemical primary FP assay, phenotype converters (AID 1240); conditions: GST-Bcl-B / FITC-TR3 peptide fluorescence polarization; stronger effect = higher value; compound at 3.75 mg/L;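 further: 0% = Bcl-B with tracer peptide and DMSO and 100% = tracer peptide lacking Bcl-B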
Sequence of UniProt Q9HD36 (Q9HD36 whole entry, looked up): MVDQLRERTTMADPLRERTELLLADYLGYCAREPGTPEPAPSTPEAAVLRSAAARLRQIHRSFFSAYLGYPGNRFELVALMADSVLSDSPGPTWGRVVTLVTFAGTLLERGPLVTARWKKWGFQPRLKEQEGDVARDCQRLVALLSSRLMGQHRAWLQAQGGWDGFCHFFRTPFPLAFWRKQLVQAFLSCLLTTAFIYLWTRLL

Structure (SMILES) | displacement
O=[N+]([O-])c1cccc(C2=Nc3ccccc3NC(c3ccccc3)C2)c1 (stereo not drawn) | -12.7%
O=C1NC(=O)N(c2ccccc2)C(=O)/C1=C\c1ccc(OCc2ccc(F)cc2)cc1 | 0.4%
O=C(Nc1nc(-c2ccc(Cl)cc2)cs1)c1sc2ccccc2c1Cl | -12%
CCCC(=O)Nc1ccc2c(c1)OCCO2 | -1%
COc1cc(OC)cc(C(=O)N2CCN(C)CC2)c1 | -10.5%
CCN(CC)C1CC(=O)N(c2ccc(Cl)cc2)C1=O (stereo not drawn) | 6.2%
COc1ccc(/C(O)=C2\C(=O)C(=O)N(CCc3ccccc3)C2c2ccccc2F)cc1 (stereo not drawn) | 0.5%
CC1=NN(c2ccc(S(N)(=O)=O)cc2)C(=O)/C1=C\c1ccc(-c2ccc(Cl)c(C(=O)OC(C)C)c2)o1 | 1.3%
O=C(Nc1ccc(Br)cc1)C1CCCN1C(=O)OCc1ccccc1 (stereo not drawn) | 5.7%
CCOC(=O)c1c(N)sc(C(=O)N2CCc3ccccc3C2)c1C | 17.6%
Cc1ccc(C2Nc3ccc(C(=O)c4ccccc4)cc3NC3=C2C(=O)CC(C)(C)C3)o1 (stereo not drawn) | 17.6%
CCOC(=O)C(=O)Nc1ccc(OC)c(Cl)c1 | -4.3%
COc1ccc(S(=O)(=O)N/N=C/c2cc3c(cc2Br)OCO3)cc1 | -10.4%
CC1(c2cccs2)CC(c2cccs2)=C(C#N)C(=O)N1 (stereo not drawn) | 21.4%
COc1ccc(C(=O)Oc2cccc3c(OC)ccc(C=O)c23)cc1OC | -8.1%
Cc1ccc(C)c(NC(=O)CCCCCCCCCCC2CCCO2)c1 (stereo not drawn) | -3.3%
CCN(CC)c1ccc(NC(=O)c2ccccc2[N+](=O)[O-])cc1 | -6.6%
O=C(Oc1ccc(/C=N/NS(=O)(=O)c2ccc(Cl)cc2)cc1)c1ccco1 | 6.4%
CCOC(=O)C1=C(C)N=c2s/c(=C\c3cccc(OC)c3O)c(=O)n2C1c1ccc(OC)cc1 (stereo not drawn) | 9.8%
C=CCc1cccc2cc(C(=O)Nc3ccc(NC(C)=O)cc3)c(=O)oc12 | -13.3%
Cc1cccc(NC(=O)CC2S/C(=N\N=C\c3cccs3)NC2=O)c1C (stereo not drawn) | 7%
Clc1cc2c(cc1CSc1nc3ncccc3[nH]1)OCO2 | -5.8%
CCOc1cc(C=O)cc(I)c1OCc1ccccc1Cl | 10.5%

Structure (SMILES) | displacement
Cc1cccc(N2C(=O)c3ccc(NC(=O)C(c4ccccc4)c4ccccc4)cc3C2=O)c1C | -64.7%
O=C(Nc1ccc2oc(-c3ccccc3F)nc2c1)C(Cl)(Cl)Cl | -12.3%
O=C(c1cc(F)c(F)cc1Cl)N1CCN(c2ccc(Cl)cc2[N+](=O)[O-])CC1 | -8%
O=C(Nc1ccc2nn(-c3ccc(Cl)cc3)nc2c1)c1cccnc1 | 29.6%
O=C(Nc1ccc(N2C(=O)c3ccccc3C2=O)cc1Cl)c1ccc(Cl)cc1Cl | 16.8%
O=C(Nc1c(C(=O)N2CCCCCC2)cnn1-c1ccccc1)c1cccc(F)c1 | 0.8%
Cc1ccsc1/C=C(/C#N)c1nc(-c2ccc(Br)cc2)cs1 | 132%
CCOC(=O)Oc1ccc2oc(=O)cc(C)c2c1 | 7.3%
O=C(CSCc1ccc(F)cc1)Nc1ccccc1 | 16.1%
CC(C)=C1C2CCC1C(C(=O)Nc1ccc(C)c(Cl)c1)C2C(=O)O (stereo not drawn) | -5.8%
Nc1ccc(S(=O)(=O)N2CCCCCC2)cc1 | 3%
CCCCCCOc1ccc(N2C(=O)CC(N3CCN(Cc4ccc5c(c4)OCO5)CC3)C2=O)cc1 (stereo not drawn) | 27.1%
COc1ccc(/C=C2\SC(=S)N(CCS(=O)(=O)O)C2=O)cc1 | 3.2%
COc1ccc(C(=O)/C=C/Nc2cc(Cl)cc(Cl)c2)cc1 | 3.9%
COc1ccc(C(=O)N/C(=C\c2ccc(Cl)cc2)C(=O)NCc2ccncc2)cc1 | 14.7%
COc1cccc(C2NC(=O)N(C)C(C)=C2C(=O)OC(C)C)c1OC (stereo not drawn) | 7.9%
Cc1c(NC(=O)c2ccc3c(c2)C(=O)N(N2C(=O)c4ccccc4C2=O)C3=O)cccc1C(=O)O | 1.9%
Cc1ccc(C(=O)Nc2nc(-c3ccccc3)c(C)s2)cc1 | 4.1%
Cc1occc1C(=O)Nc1cccc2ccccc12 | 3.3%
O=C(/C=C/c1cc2c(cc1Br)OCO2)c1cccs1 | -21.6%
CCc1cc2c(=O)c(-c3nc4ccccc4s3)coc2cc1OS(C)(=O)=O | 4.5%
COc1cccc(-n2sc3c(c2=S)-c2cc(C)ccc2NC3(C)C)c1 | 1.3%
CC(Nc1cc(N2CCN(CCO)CC2)ccc1[N+](=O)[O-])C12CC3CC(CC(C3)C1)C2 (stereo not drawn) | 5%

Structure (SMILES) | displacement
CCOC(=O)CSc1nc2sc3c(c2c(=O)n1-c1ccccc1C)CCc1ccccc1-3 | -6.6%
CC(=O)N(c1ccccc1)S(=O)(=O)c1ccc(Cl)cc1 | 10.5%
CC1CCN(CCOCCOc2cccc3ccccc23)CC1 | 0.7%
CCC(=O)c1ccc(N2CCN(C(=O)c3ccc(Br)cc3)CC2)c(F)c1 | -7.2%
Cc1nnc(Nc2ccccc2O)c2ccccc12 | -1.6%
COC(=O)c1cccc(N2C(=O)c3ccc(C(=O)c4cccc([N+](=O)[O-])c4)cc3C2=O)c1 | 7.1%
Cc1ccc(N(CC(=O)NCc2ccccc2C)S(C)(=O)=O)cc1 | -2.5%
Cc1ccc(/C=C(\C#N)c2nc3ccccc3s2)cc1 | 88.3%
O=C1OC(c2ccccc2Br)=N/C1=C\c1cc2c(cc1Cl)OCO2 | 116%
CCN(CC)c1ccc(/C=C2\C(=O)NC(=O)N(c3cc(C)cc(C)c3)C2=O)o1 | -62.5%
CC(=O)c1ccc(NC(=O)c2ccc(-c3cccc(Cl)c3C)o2)cc1 | 1.7%
CCOC(=O)c1ccc(NC(=O)CN(c2ccc(C)cc2)S(=O)(=O)c2ccc(OCC)cc2)cc1 | 9.9%
CCOC(=O)C1=C(C)NC(=S)NC1c1ccc(OC(=O)c2ccco2)c(OC)c1 (stereo not drawn) | 10.8%
CC(C(=O)O)N1C(=O)/C(=C/c2ccc(C(=O)O)cc2)SC1=S (stereo not drawn) | -1%
Cc1ccc(C(=O)Nc2ccc(I)cc2)cc1[N+](=O)[O-] | 10.8%
CCCc1n[nH]c2c1/C(=N\O)CC(C)(C)C2 | 2.6%
O=S1(=O)N=C(Nc2cccc(Cl)c2)c2ccccc21 | 9.5%
O=C(Nc1ccc(C(=O)O)cc1)/C(=C/c1cccc([N+](=O)[O-])c1)NC(=O)c1ccccc1 | 1.7%
CCCC(=O)Nc1ccc(Cl)cc1C(=O)O | 10.7%
Cc1ccc(OCCOc2ccccc2/C=C2/SC(=S)N(C)C2=O)cc1 | 3.3%
C=CCOC(=O)C1=C(C)NC(C)=C(C(=O)OCC=C)C1c1ccc(O)cc1 | 9.3%
COc1ccc(-c2cc(-c3ccc(OC)c(OC)c3)n[nH]2)c(O)c1 | 11.7%
